PubChem BioAssay (NCI)
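Cells were grown in 96-well plates and exposed to each compound for 48 hours at five concentrations; endpoints were interpolated linearly between bracketing concentrations, or set to the highest concentration if not reached. GI50 = concentration required for 50% inhibition of growth. At the TGI there is no net growth.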

System: NCI-H322M lung
Experiment: growth of human tumour cells (NCI), 48 h

**Q.** Which TGI does the source give for COC(=O)Nc1nc2ccc(NC(=O)c3ccc(I)cc3)cc2[nH]1 here?
**A.** The TGI was greater than 100 µM.

**Q.** With COc1ccc(-c2ccc(/C=N/n3c(COc4ccccc4Cl)nn(CN4CCOCC4)c3=S)o2)c([N+](=O)[O-])c1 as the compound, how does the GI50 read?
**A.** Its GI50 is 21 µM.

**Q.** And the TGI?
**A.** Its TGI is 61.7 µM.

**Q.** How did the TGI turn out when O=C(C(=O)n1ncc(Cl)c(Cl)c1=O)n1ncc(Cl)c(Cl)c1=O was run?
**A.** The TGI was greater than 100 µM.

**Q.** For CS(=O)(=O)Nc1cccc(-c2ccc3ncnc(Nc4ccc(F)c(Cl)c4)c3c2)c1, which GI50 is on record?
**A.** The GI50 was 0.0486 µM.

**Q.** What about the TGI of the same compound?
**A.** The TGI was 4.79 µM.

**Q.** How did the TGI turn out when C1CCCCc2nc3c(nc2CCC1)c1nc2c(nc1c1nc4c(nc31)CCCCCCCC4)CCCCCCCC2 was run?
**A.** The TGI was greater than 100 µM.

**Q.** Which TGI does the source give for CCCCCC(=O)Nc1nc2nc[nH]c2c(=O)[nH]1 here?
**A.** Its TGI is greater than 100 µM.

**Q.** For O=c1c2ccccc2nc2ccc3c(Cl)[nH][nH]c3c12, which TGI is on record?
**A.** Its TGI is greater than 100 µM.

**Q.** What does the source list for O=C1/C(=C/c2ccc(F)cc2)CN(C(=O)CCN2CCC(=NO)CC2)C/C1=C\c1ccc(F)cc1?
**A.** GI50: 2.92 µM; TGI: 5.7 µM

**Q.** CCCCN(C)/N=N/c1nc[nH]c1C(N)=O was tested. Which TGI did it give?
**A.** The TGI was greater than 100 µM.

**Q.** With Cc1c(C(=O)O)n(C)c(=O)n(C)c1=O as the compound, how does the TGI read?
**A.** The TGI was greater than 100 µM.

**Q.** For CC(C)c1cc(C(C)C)c(S(=O)(=O)N=[N+]=[N-])c(C(C)C)c1, which TGI is on record?
**A.** The TGI was greater than 100 µM.

**Q.** Which TGI does the source give for CC(C)=CCC[C@@H](C)C1=C(O)C(Nc2ccccc2I)=C(C)C(=O)C1=O here?
**A.** The TGI was greater than 75 µM.

**Q.** With COc1ccc(C2=Nc3ccccc3SC(C)C2)cc1OC (configuration not stated) as the compound, how does the TGI read?
**A.** The TGI was 79.9 µM.

**Q.** Cc1ccc(C)c(N2C(=O)C(=O)C(c3nc4ccccc4o3)C(=O)C2=O)c1 was tested. Which TGI did it give?
**A.** Its TGI is greater than 100 µM.

**Q.** Which TGI does the source give for CCOC(=O)/C(=C/c1cccc(Cl)c1)N(CC)CC here?
**A.** Its TGI is greater than 100 µM.

**Q.** How did the TGI turn out when S=C1SC(=Nc2ccccc2)C(=Nc2ccccc2)N1c1ccc2ccccc2c1 was run?
**A.** Its TGI is greater than 100 µM.

**Q.** What does the source list for COc1ccccc1C1C(C#N)=C(N)Oc2n[nH]c(C)c21 (configuration not stated)?
**A.** GI50: > 100 µM; TGI: > 100 µM

**Q.** Cc1cc(-c2nc3cccc(O)c3s2)ccc1N was tested. Which TGI did it give?
**A.** Its TGI is greater than 100 µM.

**Q.** How did the TGI turn out when Cc1ccc([N+](=O)[O-])c2c(NCCNC(=O)c3cc(C(=O)NCCNc4ccnc5c(C)ccc([N+](=O)[O-])c45)n(C)n3)ccnc12 was run?
**A.** The TGI was greater than 100 µM.

**Q.** Which TGI does the source give for COc1cccc(C2c3cc4c(cc3OC(Nc3ccccc3)C2C)OCO4)c1O (configuration not stated) here?
**A.** Its TGI is 49.4 µM.

**Q.** For CC1=CCC[C@H]2[C@](C)(CC3=CC(=O)C(SCC(C)C)=CC3=O)[C@@H](C)CC[C@]12C, which TGI is on record?
**A.** The TGI was 32 µM.

**Q.** With C#CC1=CC(=O)C(OC)=CC1=O as the compound, how does the TGI read?
**A.** The TGI was greater than 100 µM.

**Q.** Which TGI does the source give for CC1=C(SC#N)S(=O)(=O)N(c2ccccc2)C(C)=C1SC#N here?
**A.** Its TGI is greater than 100 µM.

**Q.** Which results are given for COc1ccc(C(=O)c2cc(C)c(OC)c(C)c2)c(OC)c1NC(C)=O?
**A.** GI50: 0.172 µM; TGI: > 100 µM

**Q.** Which TGI does the source give for CC1(C)Oc2ccc3c(=O)cc(-c4ccccc4)oc3c2C1C(=O)O (configuration not stated) here?
**A.** Its TGI is greater than 100 µM.

**Q.** [N-]=[N+]=NCC(O)Cn1cnc2c(NC(=O)c3ccccc3)ncnc21 (configuration not stated) was tested. Which TGI did it give?
**A.** Its TGI is greater than 100 µM.

**Q.** How did the TGI turn out when O=C(O)/C(Cc1cn[nH]n1)=N\O was run?
**A.** Its TGI is greater than 100 µM.

**Q.** Which TGI does the source give for S=C1Cc2c(-c3ccc(Br)cc3)cc(-c3ccccc3)nc2-c2ccccc2N1 here?
**A.** The TGI was 4.06 µM.

**Q.** Which TGI does the source give for CC(CNC(N)=O)NC(N)=O (configuration not stated) here?
**A.** The TGI was greater than 100 µM.

**Q.** What does the source list for CC(=O)N1CCN(CCNC(=O)n2cc(-c3ccncc3)c(-c3cc(O)cc(Cl)c3)n2)CC1?
**A.** GI50: 18.1 µM; TGI: 53.9 µM

**Q.** With C=C1C(O)C2CC(C)(CO)C(=O)C2=C(CC(C)C)C12CC2 (configuration not stated) as the compound, how does the GI50 read?
**A.** Its GI50 is 69.4 µM.

**Q.** What about the TGI of the same compound?
**A.** Its TGI is greater than 100 µM.

**Q.** C=C1CC(C)(c2cccc(Nc3nc4ccccc4c4occc34)c2)OC1=O (configuration not stated) was tested. Which TGI did it give?
**A.** The TGI was 49.5 µM.

**Q.** CCC(C)CC(C)CC(C)/C=C(\C)C1=C(C)CC(C)(O)O1 (configuration not stated) was tested. Which TGI did it give?
**A.** The TGI was greater than 100 µM.

**Q.** Which TGI does the source give for CCCCCCCCOc1ccc(/C=C/C2=[N+](CCO)CCO2)cc1 here?
**A.** Its TGI is 22.4 µM.

**Q.** For Cc1nc(-c2cc3ccccc3oc2=O)cs1, which TGI is on record?
**A.** Its TGI is greater than 100 µM.
